Data published in the supplement of paper PMC10369915.
The other results are listed elsewhere or left out. No stated cut-off is given here; in the data, active = 3.2 or more and inactive = the rest. Only a few entries rise above the background.

These binders were tested against SHP2 C-SH2 domain E139D (assay: enrichment score (SH2-bound / input frequency) (ratio); bacterial display of known human phosphotyrosine sites (pTyr-Var adds point mutants) read by sequencing; higher = stronger binding; tyrosines were phosphorylated by kinases first). Settings: peptide library: pTyr-Var.
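Further: displayed peptides selected on beads carrying the immobilized SH2 domain, with library peptides lacking any tyrosine serving as negative controls.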

Binder | enrichment score
GRVFVYRLSEQ [ITGAE_Y551_YF] | inactive: 2.52
RRAKGYPIFLF [ITGB2_Y125_D128Y_YF] | inactive: 0.278
NTCNRYCRDEI [ITGB3_Y660] | inactive: 1.18
KKGIVYIFNGR [ITGAV_Y404] | active: 4.6
RRAKGYPIDLY [ITGB2_Y125] | inactive: 0.225
PIYLYYLMDLS [ITGB2_Y131_D128Y] | inactive: 1.48
RRAKGYPIDLF [ITGB2_Y125_YF] | inactive: 0.378
RRAKGYPINLF [ITGB2_Y125_D128N_YF] | inactive: 0.288
EEGRVYVYHLS [ITGAE_Y549_R552H] | inactive: 0.606
GRVYVYRLSEQ [ITGAE_Y551] | inactive: 2.47
PIFLFYLMDLS [ITGB2_Y131_D128Y_YF] | inactive: 2.4
PINLYYLMDLS [ITGB2_Y131_D128N] | inactive: 1.45
PIDLFYLMDLS [ITGB2_Y131_YF] | inactive: 1.84
WDLSEYSYKDP [ITGA3_Y237] | inactive: 1.16
WDLSEYSFKDP [ITGA3_Y237_YF] | inactive: 1.75
TGTQLYGRFGS [ITGA2B_Y384] | inactive: 0.723
KSVITYSPTTG [ITGB3BP_Y32] | inactive: 1.01
KKGIVYVFNGR [ITGAV_Y404_I405V] | active: 3.21
GKVFVYHGSSL [ITGA7_Y458_I457V] | inactive: 1.14

The binders below were run against SHP2 C-SH2 domain wild-type in the same assay as above. Settings: peptide library: pTyr-Var.

Binder | enrichment score
GRVFVYRLSEQ [ITGAE_Y551_YF] | inactive: 2.24
RRAKGYPIFLF [ITGB2_Y125_D128Y_YF] | inactive: 0.231
NTCNRYCRDEI [ITGB3_Y660] | inactive: 0.938
KKGIVYIFNGR [ITGAV_Y404] | active: 3.59
RRAKGYPIDLY [ITGB2_Y125] | inactive: 0.27
PIYLYYLMDLS [ITGB2_Y131_D128Y] | inactive: 1.95
RRAKGYPIDLF [ITGB2_Y125_YF] | inactive: 0.235
RRAKGYPINLF [ITGB2_Y125_D128N_YF] | inactive: 0.27
EEGRVYVYHLS [ITGAE_Y549_R552H] | inactive: 0.703
GRVYVYRLSEQ [ITGAE_Y551] | active: 4.9
PIFLFYLMDLS [ITGB2_Y131_D128Y_YF] | inactive: 2.55
PINLYYLMDLS [ITGB2_Y131_D128N] | inactive: 1.37
PIDLFYLMDLS [ITGB2_Y131_YF] | inactive: 1.34
WDLSEYSYKDP [ITGA3_Y237] | inactive: 0.809
WDLSEYSFKDP [ITGA3_Y237_YF] | inactive: 1.11
TGTQLYGRFGS [ITGA2B_Y384] | inactive: 0.748
KSVITYSPTTG [ITGB3BP_Y32] | inactive: 0.678
KKGIVYVFNGR [ITGAV_Y404_I405V] | inactive: 3.02
GKVFVYHGSSL [ITGA7_Y458_I457V] | inactive: 0.841

Each binder was assayed against SHP2 N-SH2 domain L43F in the same assay as above. Settings: peptide library: pTyr-Var.

Binder | enrichment score
GRVFVYRLSEQ [ITGAE_Y551_YF] | active: 4.95
RRAKGYPIFLF [ITGB2_Y125_D128Y_YF] | inactive: 0.113
NTCNRYCRDEI [ITGB3_Y660] | inactive: 1.19
KKGIVYIFNGR [ITGAV_Y404] | active: 4.15
RRAKGYPIDLY [ITGB2_Y125] | inactive: 0.305
PIYLYYLMDLS [ITGB2_Y131_D128Y] | inactive: 2
RRAKGYPIDLF [ITGB2_Y125_YF] | inactive: 0.359
RRAKGYPINLF [ITGB2_Y125_D128N_YF] | inactive: 0.211
EEGRVYVYHLS [ITGAE_Y549_R552H] | inactive: 0.617
GRVYVYRLSEQ [ITGAE_Y551] | inactive: 2.89
PIFLFYLMDLS [ITGB2_Y131_D128Y_YF] | inactive: 2.52
PINLYYLMDLS [ITGB2_Y131_D128N] | inactive: 1.48
PIDLFYLMDLS [ITGB2_Y131_YF] | inactive: 1.79
WDLSEYSYKDP [ITGA3_Y237] | inactive: 0.894
WDLSEYSFKDP [ITGA3_Y237_YF] | inactive: 1.09
TGTQLYGRFGS [ITGA2B_Y384] | inactive: 0.799
KSVITYSPTTG [ITGB3BP_Y32] | inactive: 1.02
KKGIVYVFNGR [ITGAV_Y404_I405V] | inactive: 2.83
GKVFVYHGSSL [ITGA7_Y458_I457V] | inactive: 1.1

The binders below were run against SHP2 N-SH2 domain T42A in the same assay as above. Settings: peptide library: pTyr-Var.

Binder | enrichment score
GRVFVYRLSEQ [ITGAE_Y551_YF] | inactive: 2.05
RRAKGYPIFLF [ITGB2_Y125_D128Y_YF] | inactive: 0.208
NTCNRYCRDEI [ITGB3_Y660] | inactive: 0.966
KKGIVYIFNGR [ITGAV_Y404] | active: 3.38
RRAKGYPIDLY [ITGB2_Y125] | inactive: 0.275
PIYLYYLMDLS [ITGB2_Y131_D128Y] | inactive: 1.32
RRAKGYPIDLF [ITGB2_Y125_YF] | inactive: 0.335
RRAKGYPINLF [ITGB2_Y125_D128N_YF] | inactive: 0.262
EEGRVYVYHLS [ITGAE_Y549_R552H] | inactive: 0.495
GRVYVYRLSEQ [ITGAE_Y551] | inactive: 1.6
PIFLFYLMDLS [ITGB2_Y131_D128Y_YF] | inactive: 2.2
PINLYYLMDLS [ITGB2_Y131_D128N] | inactive: 1.29
PIDLFYLMDLS [ITGB2_Y131_YF] | inactive: 1.52
WDLSEYSYKDP [ITGA3_Y237] | inactive: 0.92
WDLSEYSFKDP [ITGA3_Y237_YF] | inactive: 1.23
TGTQLYGRFGS [ITGA2B_Y384] | inactive: 0.687
KSVITYSPTTG [ITGB3BP_Y32] | inactive: 0.863
KKGIVYVFNGR [ITGAV_Y404_I405V] | inactive: 2.5
GKVFVYHGSSL [ITGA7_Y458_I457V] | inactive: 0.949

What follows are binders tested against SHP2 N-SH2 domain T52S in the same assay as above. Settings: peptide library: pTyr-Var.

Binder | enrichment score
GRVFVYRLSEQ [ITGAE_Y551_YF] | active: 6.79
RRAKGYPIFLF [ITGB2_Y125_D128Y_YF] | inactive: 0.204
NTCNRYCRDEI [ITGB3_Y660] | inactive: 1.1
KKGIVYIFNGR [ITGAV_Y404] | active: 4.01
RRAKGYPIDLY [ITGB2_Y125] | inactive: 0.233
PIYLYYLMDLS [ITGB2_Y131_D128Y] | inactive: 1.38
RRAKGYPIDLF [ITGB2_Y125_YF] | inactive: 0.295
RRAKGYPINLF [ITGB2_Y125_D128N_YF] | inactive: 0.128
EEGRVYVYHLS [ITGAE_Y549_R552H] | inactive: 0.459
GRVYVYRLSEQ [ITGAE_Y551] | active: 3.5
PIFLFYLMDLS [ITGB2_Y131_D128Y_YF] | inactive: 2.27
PINLYYLMDLS [ITGB2_Y131_D128N] | inactive: 1.62
PIDLFYLMDLS [ITGB2_Y131_YF] | inactive: 2
WDLSEYSYKDP [ITGA3_Y237] | inactive: 0.893
WDLSEYSFKDP [ITGA3_Y237_YF] | inactive: 1.62
TGTQLYGRFGS [ITGA2B_Y384] | inactive: 0.711
KSVITYSPTTG [ITGB3BP_Y32] | inactive: 0.863
KKGIVYVFNGR [ITGAV_Y404_I405V] | inactive: 2.88
GKVFVYHGSSL [ITGA7_Y458_I457V] | inactive: 1.03

These binders were tested against SHP2 N-SH2 domain wild-type in the same assay as above. Settings: peptide library: pTyr-Var.

Binder | enrichment score
GRVFVYRLSEQ [ITGAE_Y551_YF] | inactive: 3.04
RRAKGYPIFLF [ITGB2_Y125_D128Y_YF] | inactive: 0.262
NTCNRYCRDEI [ITGB3_Y660] | inactive: 0.957
KKGIVYIFNGR [ITGAV_Y404] | active: 3.52
RRAKGYPIDLY [ITGB2_Y125] | inactive: 0.282
PIYLYYLMDLS [ITGB2_Y131_D128Y] | inactive: 1.81
RRAKGYPIDLF [ITGB2_Y125_YF] | inactive: 0.36
RRAKGYPINLF [ITGB2_Y125_D128N_YF] | inactive: 0.683
EEGRVYVYHLS [ITGAE_Y549_R552H] | inactive: 0.626
GRVYVYRLSEQ [ITGAE_Y551] | inactive: 1.44
PIFLFYLMDLS [ITGB2_Y131_D128Y_YF] | inactive: 2.25
PINLYYLMDLS [ITGB2_Y131_D128N] | inactive: 1.54
PIDLFYLMDLS [ITGB2_Y131_YF] | inactive: 1.76
WDLSEYSYKDP [ITGA3_Y237] | inactive: 1.15
WDLSEYSFKDP [ITGA3_Y237_YF] | inactive: 1.24
TGTQLYGRFGS [ITGA2B_Y384] | inactive: 0.696
KSVITYSPTTG [ITGB3BP_Y32] | inactive: 0.829
KKGIVYVFNGR [ITGAV_Y404_I405V] | inactive: 2.88
GKVFVYHGSSL [ITGA7_Y458_I457V] | inactive: 0.987
